Our source for the self-cleavage values is the RNAGym collection of RNA variant scans (doi:10.1093/nar/gkz1192).

The source gives no read counts; variants with many changes may rest on few reads.

B1: CPEB3 Ribozyme (parent)
chain: UAACAGGGGGCCACAGCAGAAGCGUUCACGUCGCAGCCCCUGUCAGAUUCUGGUGAAUCUGCGAAUUCUGCUGUAUAUCUC

The variants in the data set derive from B1. As to the kind of experiment: self-cleavage, relative activity (ratio to wild type); higher = more cleavage; in vitro, sequencing. The method, boiled down:
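Relative activity compares each variant's cleaved/total read fraction with that of the unmutated ribozyme. To get these fractions, barcoded CPEB3 ribozyme libraries from rounds of error-prone PCR were transcribed with T7 RNA polymerase for 5 hours at 37°C and then given 15 min of DNase I treatment before EDTA was added. The RNAs were reverse transcribed with template switching and sequenced on Illumina, and DNA sequencing linked barcodes to variants. A minimum of 5 reads applied, and three batches were averaged.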
In the case of UAACAGGGGGCCACAGCACAAGCGUUCGCGUCGCAGCUCCUGUCAGAUUCUGGUGGAUCUGCGAAUUCUGCUGUAUAUCUC, the self-cleavage came out at 0.18. Turning to UAACAGGGGGCCACAGCAAAAGCGUCCACGUCGCAGCCCCUGUCAGAUUCUGGUGAAUCUGCGAAUCCUGCUGUAUAUCUC, the self-cleavage is 0.11. Next, UAACAGGGGGCCACAGCAAAGGCGUCCACGUCGCAGCCCCUGUCAGAUUCUGGUGAAUCUGCGAAUUCUGCUGUAUAUCUC: 0.22. UAACAGGGGGCCACAGCAAAAGCGUUCACGUCGCAGCCCCUGUCAGACUCUGGUGAAUCUGCGAAUUCAGCUGUAUAUCUC: the self-cleavage is 0.11.

Turning to UAACAGGGGGCCACAGCAUAGGCGUUCACGUCGCAGCCCCGGUCAGAUUCUGGUGAAUCUGCGGAUUCUGCUGUAUAUCUC, the self-cleavage turned out to be 0.17. As for UAACAGGGGGCCACAGCACAAGCGUUCACGUCGCAGCCCCUGCCAGAUUCCGGUGAAUCUGCGAAUUCUGCUGUAUAUCUC, the self-cleavage was 0.22. Regarding UAACAGGGGGCCACAGCACAAGCGUUCACGUCGCAGCCCCUGUCAGACUCUGGUGAGUCUGCGAAUUCUGCAGUUUAUCUC, the self-cleavage was 0.26.

For UAACAGGGGGCCACAGCACAAGCGUCCUCGUCGCAGCCCCUGUCAGAUCCUGGUGAAUCUGCGAAUUCUGCUGUAUAUCUC, the self-cleavage amounted to 0.19.

For UAACAGGGGGCCACAGCAAAAGCGUUCACGUCGCAGCCCCUGUCAGAUUCUGGUGAAUCAGCGAAUUCUGCUGUAUAUCCC, the self-cleavage was determined as 0.15.

For the variant UAACAGGGGGCCACAGCACAAGCGUUCUCGUCGCAGCCCCUGUCAGAUUCAGGUGAAUCUGCGAAUUCUGCUGUAUAUCUC, the self-cleavage was determined as 0.15.

With UAACAGGGGGCCACAGCAAAGGCGCUCACGUCGCAGCCCCAGUCAGAUUCUGGUGAAUCUGCGAAUUCUGCUGUAUAUCUC, the self-cleavage amounted to 0.24. Next, UAACAGGGGGCCACAGCAAAAGCGUUCACGUCGCAGCCCCUGUCAGAUUCUGGUGAAUCUGCGAACUCUGCUGUAUAUCAC: 0.07. Consider UAACAGGGGGCCACAGCAUGAGCGUUCACGUCGCAGCCCCUGUCUAAUUUUGGUGAAUCUGCGAAUUCUGCUGUAUAUCUC, for which the self-cleavage is 0.07. The result for UAACAGGGGGCCACAGCACAAGCGUUCACGUCGCUGCCCCUGUCAGAUUCUGGCGGAUCUGCGAAUUCAGCUGUAUAUCUC reads 0.08. Next, UAACAGGGGGCCACAGCACAAGCGUUCACGCCGCAGCCCCUGUCAGAUUCUGGAGUACCUGCGGAUUCUGCUGUAUAUCUC: 0.12. With UAACAGGGGGCCACAGCAAAAGCGUUCACGUCGCAGCCCCUGUCAGGUUCUGGUGAAUCUGCGAAUUCUGCUGCAUAUCUC, the self-cleavage was 0.24.

As to UAACAGGGGGCCACAGCAAAAGCGUUCACGUCGCAGCCCCUGUCAGAUUCUGGUGAAUCUGCGAAUUCUGCUGUAUACCAC, the self-cleavage stood at 0.48. Next, UAACAGGGGGCCACAGCAAAAGCGUUCACGUCGCAGCCCCUGUCGGAUUCUGGUGAAUCUGCCAAUUCUGCUGUAUAUCUC: 0.09; UAACAGGGGGCCACAGCAAAAGCGUUUACGUCGCAGCCCCUGUCAGAUCCUGGUGAAUCUGCGAAUUCUGCUGUAUAUCUC: 0.5; UAACAGGGGGCCACAGCAAAGGCGUUCACGUCGCUGCCACUGUCACAUUCUGGUGAAUCUGCGAAUUCUGCUGUAUGUCUC: 0.04.

Regarding UAACAGGGGGCCACAGCAUAGGCGUUCACGUCGCAGCCCCUGUCAGAUUCUGGUGAGUCUGCGAAUUCUGCUGUAUAUCUC, the self-cleavage is 0.17.

As to UAACAGGGGGCCACAGCAUGAGCGUUCACGUCGCAGCCCCCGUCAGAUUCUGGUGAAUCUGCGAAUUCUGCAGAAUAUCUC, the self-cleavage amounted to 0.22. Take UAACAGGGGGCCACAGCACCAGCGCUCACGUCGCAGCCCCUGUCAGAUUCUGGUGAAUCUGCGACUUCUGCUGUAUGUCUC: the self-cleavage was 0.09.

For the variant UAACAGGGGGCCACAGCACAAGCGUUCACGUCGCAGCCCCUGUCAGAUUCUGGUGAAUCUGCGAAUCCUGCUGCAUAUCUC, the self-cleavage was determined as 0.25. With UAACAGGGGGCCACAGCAAAAGCGUUCGCGUCGCAGCCCCUGUCAGAUUCUGGUGAAUCUGCGAAUUCUGCUAUAUAUCUC, the self-cleavage is 0.42. Regarding UAACAGGGGGCCACAGCAAAAGCGUACACGUCGCAGCCCCUGUCAGAUUCAGGUGGAUCUGCGAAUUCUGCUGUAUAUCUC, the self-cleavage was 0.06. With UAACAGGGGGCCACAGCAAAAGCGCUCACGUCGCAGCCCCUGCCAGAUUCUGGUGGAUCUGCGAAUUCUGCUGUAUAUCUC, the self-cleavage was determined as 0.21.

As for UAACAGGGGGCCACAGCACAAGCGUUCACGUCGCAGCCCCUGUCAGGUUCUGGCGAAUCUGCGGAUUCUGCUGUAUAUCUC, the self-cleavage came out at 0.18. UAACAGGGGGCCACAGCACAAGCGUUCACGUCGCAGCCCCUGUCAGAUUCUGGUGAAUCUGCGAAUUCUGCUGAAUGUCUC: the self-cleavage turned out to be 0.43. In the case of UAACAGGGGGCCACAGCAAAAGCGUUUACGUCGCAGCCCCUGUCAGAUUCCGGUGAAUCUGCGAAUUCUGCUGUAUAUCUC, the self-cleavage stood at 0.13. UAACAGGGGGCCACAGCAAAAGCGUUCACGUCGCAGCCCCUGUCAGAUUCUGGUGAGUCCGCGAAUUCUGCUGUAUAUCUC: the self-cleavage came to 0.23. Next, UAACAGGGGGCCACAGCAAAAGCGUUCACAUCGCAGCCCCUGUCAGAUUCUCGUGAAUCUGCGAAUUCUGCUGUAUAUCUC: 0.15. With UAACAGGGGGCCACAGCAAAAGCGUUCACGUCGCAGCCCCUGUCAGAUUCUGGUGGAUCUGCGAAUUCUGCUAUAUAUCUC, the self-cleavage came to 0.13. As for UAACAGGGGGCCACAGCAAAAGCGUUCACGUCGCGGCCCCUGUCAGAUUCUGGUGAGUCUGCGAAUUCUGCUGUAUAUCUC, the self-cleavage was found to be 0.24.
